Laboratory results taken from patent US20220185875A1 (JIANGSU HENGRUI MEDICINE, published 2022).

T1: human ANG2 (sinobiological, 10691-H08H) (human, UniProt O15123 19-496)
T1 construct: Bought reagent, used as analyte in Biacore
T1 sequence (looked up): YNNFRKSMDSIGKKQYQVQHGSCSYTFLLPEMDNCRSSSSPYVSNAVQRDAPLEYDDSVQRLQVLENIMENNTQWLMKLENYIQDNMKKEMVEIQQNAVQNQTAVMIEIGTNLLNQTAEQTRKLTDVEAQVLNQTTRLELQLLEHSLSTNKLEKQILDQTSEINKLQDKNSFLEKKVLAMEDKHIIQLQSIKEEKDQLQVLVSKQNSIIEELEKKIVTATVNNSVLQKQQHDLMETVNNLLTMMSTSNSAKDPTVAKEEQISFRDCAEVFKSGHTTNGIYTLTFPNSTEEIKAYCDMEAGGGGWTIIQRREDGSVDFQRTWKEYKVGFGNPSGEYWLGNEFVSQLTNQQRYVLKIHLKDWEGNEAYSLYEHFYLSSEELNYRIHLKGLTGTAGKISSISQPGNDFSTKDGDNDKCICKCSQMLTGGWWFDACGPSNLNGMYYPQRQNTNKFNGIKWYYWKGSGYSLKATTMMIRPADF

T2: mouse ANG2 (sinobiological, 50298-MOTH) (mouse, UniProt O35608 19-496, limits assumed)
T2 construct: Bought reagent, used as analyte in Biacore; also called murine ANG2
T2 sequence (looked up): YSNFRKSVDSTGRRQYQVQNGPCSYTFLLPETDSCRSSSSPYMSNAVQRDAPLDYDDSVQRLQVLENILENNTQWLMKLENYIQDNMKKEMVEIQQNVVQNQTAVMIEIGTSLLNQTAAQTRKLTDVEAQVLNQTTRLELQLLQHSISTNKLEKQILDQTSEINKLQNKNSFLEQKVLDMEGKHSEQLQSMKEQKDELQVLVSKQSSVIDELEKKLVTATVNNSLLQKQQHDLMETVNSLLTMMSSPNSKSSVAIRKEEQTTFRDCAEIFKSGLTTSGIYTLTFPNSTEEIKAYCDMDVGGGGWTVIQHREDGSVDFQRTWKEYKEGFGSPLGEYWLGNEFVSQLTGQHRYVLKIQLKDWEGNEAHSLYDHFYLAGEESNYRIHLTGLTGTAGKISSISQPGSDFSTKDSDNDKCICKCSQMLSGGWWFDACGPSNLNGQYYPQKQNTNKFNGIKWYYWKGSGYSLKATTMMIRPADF

T3: human ANG1 (RD,923-AN) (human, UniProt Q15389 20-498, limits assumed)
T3 sequence (looked up): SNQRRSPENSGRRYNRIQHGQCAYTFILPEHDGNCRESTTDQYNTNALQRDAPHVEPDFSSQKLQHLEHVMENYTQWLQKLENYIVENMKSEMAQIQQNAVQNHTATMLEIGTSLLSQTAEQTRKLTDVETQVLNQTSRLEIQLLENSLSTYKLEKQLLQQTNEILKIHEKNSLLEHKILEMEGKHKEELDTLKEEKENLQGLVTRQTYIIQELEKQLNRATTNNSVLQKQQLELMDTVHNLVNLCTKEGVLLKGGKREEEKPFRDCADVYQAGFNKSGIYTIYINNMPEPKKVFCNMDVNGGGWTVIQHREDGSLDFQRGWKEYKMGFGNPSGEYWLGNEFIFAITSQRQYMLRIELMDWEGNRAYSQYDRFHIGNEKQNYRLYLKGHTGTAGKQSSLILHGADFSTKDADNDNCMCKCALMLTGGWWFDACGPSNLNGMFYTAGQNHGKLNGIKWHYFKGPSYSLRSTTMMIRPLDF


What was measured:
[1] = biological target: T1, human ANG2 (sinobiological, 10691-H08H); test: SPR (Biacore T200), antibody captured on Protein A chip, antigen as analyte, 1:1 Langmuir fit
[2] = biological target: T2, mouse ANG2 (sinobiological, 50298-MOTH); test: as above
[3] = biological target: T4, cyno VEGF (sinobiological, 11066) (cyno); test: as above
T4 construct: Bought reagent, used as analyte in Biacore

[4] = biological target: T3, human ANG1 (RD,923-AN); test: SPR (Biacore T200), antibody captured on Protein A chip

Kd [1] [pM]	Kd [2] [pM]	Kd [3] [pM]	binding result [4]	Binder
400	510	5	no binding	hu15.E-V (bispecific antibody, human IgG1, kappa, First chain: ranibizumab VH, IgG1 constant region, linker, humanized anti-ANG2 VHH hu15.E. Second chain: ranibizumab light chain; also called VEGF/ANG2 bispecific antibody hu15.E-V) heavy: EVQLVESGGGLVQPGGSLRLSCAASGYDFTHYGMNWVRQAPGKGLEWVGWINTYTGEPTYAADFKRRFTFSLDTSKSTAYLQMNSLRAEDTAVYYCAKYPYYYGTSHWYFDVWGQGTLVTVSS[human IgG1 constant region not printed]GEVQLVESGGGLVQPGGSLRLSCAASGFTFSSYAMSWVRQAPGKGLEWVSTINSGGGRTGYADSVKGRFTISRDNSKNTLYLQMNSLRPEDTAVYYCNADHPQGYWGQGTTVTVSS light: DIQLTQSPSSLSASVGDRVTITCSASQDISNYLNWYQQKPGKAPKVLIYFTSSLHSGVPSRFSGSGSGTDFTLTISSLQPEDFATYYCQQYSTVPWTFGQGTKVEIKRTVAAPSVFIFPPSDEQLKSGTASVVCLLNNFYPREAKVQWKVDNALQSGNSQESVTEQDSKDSTYSLSSTLTLSKADYEKHKVYACEVTHQGLSSPVTKSFNRGEC
1150	264000	4.36	no binding	hu14.2B-V (bispecific antibody, human IgG1, kappa, First chain: ranibizumab VH, IgG1 constant region, linker, humanized anti-ANG2 VHH hu14.2B; Second chain: ranibizumab light chain; also called VEGF/ANG2 bispecific antibody hu14.2B-V) heavy: EVQLVESGGGLVQPGGSLRLSCAASGYDFTHYGMNWVRQAPGKGLEWVGWINTYTGEPTYAADFKRRFTFSLDTSKSTAYLQMNSLRAEDTAVYYCAKYPYYYGTSHWYFDVWGQGTLVTVSS[human IgG1 constant region not printed]GEVQLVESGGGLVQPGGSLRLSCAASGFTFSDFGMSWVRQAPGKGLEWVSSITWSGGSTYYADSVKGRFTISRDNSKNTLYLQMNSLKPEDTAVYYCNADHPQGYWGQGTTVTVSS light: DIQLTQSPSSLSASVGDRVTITCSASQDISNYLNWYQQKPGKAPKVLIYFTSSLHSGVPSRFSGSGSGTDFTLTISSLQPEDFATYYCQQYSTVPWTFGQGTKVEIKRTVAAPSVFIFPPSDEQLKSGTASVVCLLNNFYPREAKVQWKVDNALQSGNSQESVTEQDSKDSTYSLSSTLTLSKADYEKHKVYACEVTHQGLSSPVTKSFNRGEC
